Our source for the self-cleavage values is the RNAGym collection of RNA variant scans (doi:10.7554/elife.90254).

The labels stand for the following.
B1: LINE1-mini (parent)
chain: GGCAGAGCUCAACACAGCGUGGCAAAGUGGCUGUGGCUAGACUGCC

Read counts are not given, so values of variants with three or more changes are uncertain.

In the series the parent is B1. The series can be described thus: self-cleavage, relative activity (ratio to wild type); higher = more cleavage; in vitro, sequencing; the parent is a self-cleaving ribozyme.
Consider GGCAGAGCUGAACACAGCGUGGCGAAGUGGCUGUGGCUAGACUUCC [C10G A24G G44U], for which the self-cleavage was determined as 0.03.

For the variant GGCAGAGCUGAACAGAGCGUCGCAAAGUGGCGGUGGCUAGACUGCC [C10G C15G G21C U32G], the self-cleavage worked out at 0.01.

As for GGCAGAGCUGAACACAGCGUGGCAAAGUGGCUGUGGCUAGUUUUCC [C10G A41U C42U G44U], the self-cleavage came out at 0.

With GGCAGAGCUGAAUACAGCGUGGCAAAUUGGUUGUGGGUAGACUGCC [C10G C13U G27U C31U C37G], the self-cleavage was 0.

GGCAGAGCUGAGCACAGCGUGGCAAAGUGGCUGUGGCUAGACUGAC [C10G A12G C45A]: the self-cleavage is 0.01.

GGCAGAGCUGAACACGGCAUGGCAGAGUGGCUGUGGCUAGACUGCC [C10G A16G G19A A25G]: the self-cleavage was determined as 0.05.

With GGCAGAGCUGAACACAGCGUGGCACAGUGGCUGUGGCUAGACUGUC [C10G A25C C45U], the self-cleavage came out at 0.02.

For GGCAGAGCUGAACACUGCGUUGCAAAGUGGCUGUGGCUAGACUGCC [C10G A16U G21U], the self-cleavage came out at 0.06.

Turning to GGCAGAGCUGAACACAGCGUGGCAAUGUGGCUGUGGCUAGAGUGCC [C10G A26U C42G], the self-cleavage came to 0.01.

GGCAGAGCUGAACACCGCGGGGCAAAGUGUCUUUGGCUAGAAUGCC [C10G A16C U20G G30U G33U C42A]: the self-cleavage turned out to be 0.01.

For the variant GGCAGAGCUGAACAGAGCGUGGCAAAGUGGCUGUGGCUAGACUAGC [C10G C15G G44A C45G], the self-cleavage was 0.02.

GGCAGAGCUGAACAUAGCGUGGCAAUGUGGAUGUGGCUAGACUGCC [C10G C15U A26U C31A]: the self-cleavage came out at 0.02.

For GGCAGAGCUGAACAAAGCGUGGCAAAGUGGCUGUGGCUAGACAGCC [C10G C15A U43A], the self-cleavage was 0.01.

For the variant GGCAGAGCUGAACAGAGUGUGGCAAAGUGGCUGUCGCUAGACUGCC [C10G C15G C18U G35C], the self-cleavage is 0.01.

For the variant GGCAGAGCUGAAAACAGGGUGUCAAAGUGGCUCUGGCUAGACUGCC [C10G C13A C18G G22U G33C], the self-cleavage stood at 0.01.

In the case of GGCAGAGCUGAAAAUAGCGUUGCAAAGUGGCUGUGGCUAGACUGCC [C10G C13A C15U G21U], the self-cleavage is 0.05.

With GGCAGAGCUGAACCCAGCGAGGCAAAGUGGCUGUGGCUAGACUGCC [C10G A14C U20A], the self-cleavage was 0.02.

In the case of GGCAGAGCUGACCACAGCGUGGCAAAGUGGCUGUUGCUAGACUUCC [C10G A12C G35U G44U], the self-cleavage worked out at 0.01.

On to GGCAGAGCUGACCACAGCGUGGCAAAGUGGUUGUGGUUAGAUUGCC [C10G A12C C31U C37U C42U], for which the self-cleavage turned out to be 0.

GGCAGAGCUGAACCCAGCGUGGCAAAGUGGCUGUGGCUCGAUUGCC [C10G A14C A39C C42U]: the self-cleavage is 0.

For GGCAGAGCUGAUCACAGUGUGGCAAGGUGGCUGUGGAUAGACUGCC [C10G A12U C18U A26G C37A], the self-cleavage came out at 0.

Turning to GGCAGAGCUGAACACAGCGUGGCAACGUGGCUGUGGCUAGGCUGCC [C10G A26C A41G], the self-cleavage is 0.02.

For GGCAGAGCUGAACACAGCGUGGCGAAGUGGUUGUGGCUAGACUGCC [C10G A24G C31U], the self-cleavage came out at 0.16.

Consider GGCAGAGCUGAACACCGCGUGGCAAAGUGGCUGUGGCCAGACUGCC [C10G A16C U38C], for which the self-cleavage amounted to 0.01.

GGCAGAGCUGAGCAUAUCGUGGCGAAGUAGCUGUGGCUAAACUGAC [C10G A12G C15U G17U A24G G29A G40A C45A]: the self-cleavage was 0.

Regarding GGCAGAGCUGAACACAGCGUGGCAUAGUGGCUGUGGCUAGACAGCC [C10G A25U U43A], the self-cleavage came out at 0.

Take GGCAGAGCUGACCACAGGGUGGCAAAGUGGCUGUGGCUAGACUACC [C10G A12C C18G G44A]: the self-cleavage stood at 0.03.

Take GGCAGAGCUGAACAAAGCGUAGCAAAGUGGCUGUGGGUAGACUGCC [C10G C15A G21A C37G]: the self-cleavage came out at 0.02.

With GGCAGAGCUGAAUAUAGCUUGGCAAAGUGGCAGUGGCUAGACUGCC [C10G C13U C15U G19U U32A], the self-cleavage amounted to 0.02.

Take GGCAGAGCUGAACAGUGCGUGGCAAAGUGGCUGCGGCUAGACUGCC [C10G C15G A16U U34C]: the self-cleavage was 0.01.

With GGCAGAGCUGAACAAAGCGUGGCAAAGUGGCUGUGGCUCGACUGAC [C10G C15A A39C C45A], the self-cleavage came to 0.09.

For the variant GGCAGAGCUGAUCACAGCGUGGCAAGGUGGCUGUGGCUAGACUGCC [C10G A12U A26G], the self-cleavage amounted to 0.02.

With GGCAGAGCUGAACACAGCGUGGCAUAGUGGCUGUGGCUUGACAGCC [C10G A25U A39U U43A], the self-cleavage was found to be 0.

Take GGCAGAGCUGAACUCAGCGUAGCAAAGUGGCAGUGGCUAGACUGUC [C10G A14U G21A U32A C45U]: the self-cleavage turned out to be 0.

With GGCAGAGCUGAAAACAUCGUGGCAAAGUGGCUGUUGCUAGACUGCC [C10G C13A G17U G35U], the self-cleavage worked out at 0.01.

Consider GGCAGAGCUGAACACAGCGUGGCACAGUGGUUGUGGCUUGACUGCC [C10G A25C C31U A39U], for which the self-cleavage came out at 0.01.

On to GGCAGAGCUGAACAAAGCGUGUUGAUGUUGCUGUGGCUAGACUGCC [C10G C15A G22U C23U A24G A26U G29U], for which the self-cleavage was 0.03.

For the variant GGCAGAGCUGAACACAGCGUGGCCAAGGGGCUGUGGCUAGACUGCU [C10G A24C U28G C46U], the self-cleavage is 0.02.

In the case of GGCAGAGCUGAUCACAGCGUGGCAAAGUGGCUGUGACUAGACUGCC [C10G A12U G36A], the self-cleavage worked out at 0.02.

On to GGCAGAGCUGAACACUGCGUGGCAAAGUGGCUGUGGCUAGACUCCC [C10G A16U G44C], for which the self-cleavage was 0.03.

On to GGCAGAGCUGAUCACAGCGUGGCAAAGUGGCUGUGGCUAGAUUGCC [C10G A12U C42U], for which the self-cleavage is 0.02.

As to GGCAGAGCUGACCACAGCGUGGCAAAGUGUCUGUGGCUAGACUGCU [C10G A12C G30U C46U], the self-cleavage was found to be 0.01.

Take GGCAGAGCUGAACCCAGCGUGGCAAAGGGGCUGUGUCUAGAGUGCC [C10G A14C U28G G36U C42G]: the self-cleavage was determined as 0.03.

Turning to GGCAGAGCUGAAGACAGCGUUGCAAAGUGGCUAUGGCCAGACUGCC [C10G C13G G21U G33A U38C], the self-cleavage came to 0.02.

On to GGCAGAGCUGAACACAGCGUGGCAAAGUGGCUGUGGCUCGACUGAC [C10G A39C C45A], for which the self-cleavage was found to be 0.04.

Consider GGCAGAGCUGAACACAGCGUGGCUAGGUGGCUGUGGCUAGACUGCU [C10G A24U A26G C46U], for which the self-cleavage was found to be 0.2.

On to GGCAGAGCUGAACAUAGCGUGGCAAAGUGGCUGUGGCUAUACUGCC [C10G C15U G40U], for which the self-cleavage came out at 0.01.

On to GGCAGAGCUGAACACUGCGUUGCAAAGUGUCUGUGGUUAGACUGCA [C10G A16U G21U G30U C37U C46A], for which the self-cleavage came to 0.

For GGCAGAGCUGAACACAGCGUGGCUAAGUGGCUGUGGCUUGACUGCC [C10G A24U A39U], the self-cleavage came out at 0.24.

As for GGCAGAGCUGAACACAGCGUGGCCAAGUGGCUGUGGCUAUACUGCC [C10G A24C G40U], the self-cleavage turned out to be 0.02.

As for GGCAGAGCUGAACACCGCGUGGCAAAGUGGCUGAGGCUAGACUGCC [C10G A16C U34A], the self-cleavage turned out to be 0.01.

Turning to GGCAGAGCUGAACCGAGCGUGGCAAAGUGGCUGUGGCUAAACUGCC [C10G A14C C15G G40A], the self-cleavage is 0.04.

Turning to GGCAGAGCUGAACAAAGCGUGGCAAUCUGGCUGUGGCUAGACUGAA [C10G C15A A26U G27C C45A C46A], the self-cleavage was found to be 0.01.

Consider GGCAGAGCUGAUCAUAGCGUGGCAAAGUGGUUGUGGCUAGACUGCC [C10G A12U C15U C31U], for which the self-cleavage amounted to 0.02.

Regarding GGCAGAGCUGAACACCGCGUGGAAAAGUGGCUGUGGCUAGACUGCC [C10G A16C C23A], the self-cleavage amounted to 0.03.

With GGCAGAGCUGAACACAGCGUGGCUAAGUGGAUUUGGCUAGACUGAC [C10G A24U C31A G33U C45A], the self-cleavage came out at 0.
